The list shows a part of the results. Shown are side measurements of this screen, not its main read-out; they come without a call. Compounds called inactive in the main read-out are mostly missing here.

A word on the inhibition: it is the drop in the measured response relative to a control, in per cent.

A short description of the assay: beta-lactam sensitization of Mtb H37Rv, H37Rv (AID 434955).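 Note: growth measured after seven days incubation then overnight dye step; 0% = bacteria only wells and 100% = bacteria with antibiotic.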 The conditions noted are these: M. tuberculosis H37Rv growth with meropenem, percent inhibition; measured here: primary screen without meropenem; at 25 µM.
Turning to `COc1cc(/C=C(\C#N)C(=O)NCC2CCCO2)c([N+](=O)[O-])cc1OC` (stereo not given), the inhibition came out at 0.01%. Consider `COc1cccc2c1cc1c(=O)n(CC(=O)N3CCCCCC3)nc(C)n12`, for which the inhibition was -0.42%.

As to `Cc1ccc(N2CCN(CCc3ccccc3)CC2)cc1`, the inhibition was -0.48%. For `O=C(NCC1COc2ccccc2O1)C1CCC(CNc2c(N3CCCCC3)c(=O)c2=O)CC1` (stereo not given) the value was 48.3%; for `COc1cc2c(cc1OC)-c1cc(OCc3ccccc3Cl)nc(=O)n1CC2`, 7.03%; for `Cc1cccc(NCN2C(=O)c3ccncc3C2=O)n1`, -1.82%.

Regarding `COc1ccc(-c2cc(C(F)(F)F)nc(NCc3cccs3)n2)cc1`, the inhibition was 1.52%.

Take `CCCC(=O)Nc1ccc(NC(=S)NC(=O)c2cccs2)cc1`: the inhibition came out at 5.6%. On to `CCCN1CCC(N2CCN(c3cccc(C(F)(F)F)c3)CC2)CC1`, for which the inhibition was -2.98%.

In the case of `COCCOC(=O)c1c(C)oc2ccc(OC(=O)c3c(OC)cccc3OC)cc12`, the inhibition is 2.34%.

Turning to `CCCn1nc(NC(=O)c2ccco2)c2cc3cc(C)ccc3nc21`, the inhibition was 30.3%. For the molecule `O=C(COC(=O)c1cc([N+](=O)[O-])ccc1N1CCOCC1)NCc1ccc(F)cc1`, the inhibition amounted to 4.94%. With `O=C1NC(=O)N(Cc2ccco2)C(=O)/C1=C\c1ccc(-c2ccc(F)cc2)o1`, the inhibition amounted to 29.1%. As for `O=C(NCc1ccc2c(c1)OCO2)Nc1ccc2ccccc2c1`, the inhibition stood at 0.73%. Take `COc1ccc(N(C(=O)c2ccncc2)S(=O)(=O)c2ccc(OC)c(OC)c2)cc1`: the inhibition was determined as 2.16%.

Turning to `COc1ccccc1N(CN1CCCC1=O)C(=O)COc1ccccc1`, the inhibition was 2.5%. Under `Cc1cc(C(=O)NCc2cccs2)n(-c2ccccc2)n1` stands -6.27%. In the case of `Cc1cccc(CSC2=NCCN2S(=O)(=O)c2ccc(F)cc2)c1`, the inhibition came out at 13.5%. Under `CCOc1ccc(S(=O)(=O)N2CC(=O)Nc3ccccc32)cc1` stands 7.09%; under `CCOC(=O)CSc1nc2c(c(=O)[nH]c(=O)n2C)n1CCCc1ccccc1`, -5.64%; under `Cc1ccc2c(c1)N(CC(=O)NCCCc1ccccc1)C(=O)c1cccnc1O2`, -16%.

For `CCCc1ccc(-c2cc(NC(=O)CSc3n[nH]c(N)n3)n(-c3ccccc3)n2)cc1`, the inhibition is 54.1%.

For the molecule `CCN1CCN(C(=O)C2CCN(c3nnc(-n4c(C)ccc4C)s3)CC2)CC1`, the inhibition was -7.71%. For `Cc1ccc(Cl)cc1N(Cc1ccc(C(=O)NCc2cccnc2)cc1)S(=O)(=O)c1ccccc1` the value was 3.36%; for `O=C(NC1(C(F)(F)F)Oc2ccccc2O1)N1CCC2(CC1)OCCO2`, 2.11%; for `O=c1cc(C(F)(F)F)c2sc(N3CCCCC3)nc2[nH]1`, 5.01%. For the molecule `O=C(c1cc2ccccc2o1)N1CCN(C/C=C/c2ccccc2)CC1`, the inhibition is 17.4%. For `CS(=O)(=O)N(Cc1ccc(Cl)cc1)c1ccc(C(=O)NCCC2=CCCCC2)cc1` the value was 0.27%. Under `CCCn1cc(S(=O)(=O)c2ccc(C)cc2)c(=O)c2cc(OC)c(OC)cc21` stands 5.54%; under `CCOC(=O)C1CCN(C(=O)CCNS(=O)(=O)c2cc(Br)cnc2N)CC1`, 0.41%. On to `COc1ccc(-c2nnc(SCC(=O)N3CCOCC3)o2)cc1OC`, for which the inhibition is -0.93%. Regarding `O=C(Cc1ccccc1[N+](=O)[O-])Nc1ccc(S(=O)(=O)N2CCCC2)cc1`, the inhibition was determined as 1.54%. As for `CNc1oc(-c2ccccc2F)nc1S(=O)(=O)c1ccc(C)cc1`, the inhibition was -1.27%. Regarding `CCCCC(=O)NC(=S)Nc1ccc(NC(=O)C(C)C)c(OC)c1`, the inhibition is -5.62%. Under `O=C(c1ccc(Cl)cc1)N1CCC(N2CCC(C(=O)N3CCOCC3)CC2)CC1` stands 5.72%; under `Cc1ccc(Cl)cc1N1CCN(C(=O)C2CCN(c3nnc(-n4cccc4)s3)CC2)CC1`, -17.3%. For `COc1ccc(/C=N\NC(=O)c2sc(N)nc2C)cc1OC` the value was 4.68%; for `Cc1nnc(NC(=O)C2CCCN(c3ncccn3)C2)s1` (stereo not given), -6.42%; for `O=C(CCS(=O)(=O)c1ccc(F)cc1)Nc1nnc(-c2cccs2)o1`, 32.6%. For `CC(C)(C)n1nc2c(c1NC(=O)C1CC(=O)N(c3ccc(Cl)cc3)C1)CS(=O)(=O)C2` (stereo not given), the inhibition was 0.06%.

For the molecule `CCn1c(SCCC(=O)O)nnc1-c1cccnc1`, the inhibition stood at 5.26%. Turning to `Cc1cc2c3c(c1)C(C)(c1ccccc1)CC(C)(C)N3C(=O)C21C(C#N)=C(N)OC2=C1C(=O)CC(C)(C)C2` (stereo not given), the inhibition came out at 88.1%. Consider `Cc1cc(CNC(=O)c2cc(COc3ccc(F)c(F)c3)on2)nn1C`, for which the inhibition worked out at 3.84%. Under `CN1CCc2ccccc2C1C1CCNCC1` (stereo not given) stands -11%; under `Nc1c2c(nc3sc4c(c13)CCCC4)-c1ccccc1CC2`, 20%. Under `CCC(CC)NC(=O)CON=C1c2ccccc2-c2ccccc21` stands 16%; under `Cc1nc2c(C(=O)NCCc3ccccc3)c[nH]n2c(=O)c1Cl`, -10.4%; under `Cn1ncc(Br)c1C(=O)Nc1ccc(Br)cn1`, 2.21%. In the case of `COc1ccccc1CNC(=O)C1CCCN(S(=O)(=O)c2cccc3cccnc23)C1` (stereo not given), the inhibition was -4.3%. With `CN(Cc1ccccc1)C(=O)c1ccc2c(c1)OCO2`, the inhibition stood at 6.38%. Under `CN(C)S(=O)(=O)c1ccc(C(=O)NCc2nnc(SCC(=O)N3CCCC3)o2)cc1` stands -8.2%; under `CSc1nc(-c2ccc(Cl)cc2)nn1S(=O)(=O)c1ccccc1`, 30.6%. Under `CN1CCN(c2ccncc2S(=O)(=O)N2CCCCC2)CC1` stands -7.19%; under `CCOC(=O)c1ccc(N2CCOCC2)c(NC(=O)c2nccnc2C(=O)O)c1`, -0.22%; under `COc1ccc(S(=O)(=O)N2CCN(C(=O)c3cc(-c4ccccc4OC)n[nH]3)CC2)cc1`, 2.25%.

With `O=C(NC1CC1)c1ccc(CS(=O)(=O)c2c(Cl)cccc2Cl)o1`, the inhibition is -5.08%. For `CN(CCC1CCCCO1)C(=O)c1cc(COc2ccc(F)cc2F)on1` (stereo not given) the value was 2.89%; for `Clc1ccc(-c2csc3ncnc(N4CCc5ccccc5C4)c23)cc1`, 3.07%; for `Cc1ccccc1N1C(=O)/C(=C/c2ccco2)C(=O)NC1=S`, 9.38%. Under `CCOC(=O)c1c(/N=C/c2cc([N+](=O)[O-])ccc2O)sc(C)c1C` stands 2.42%; under `CCN(CC)C(=O)C1CCCN(C(=O)CCn2nnnc2CN2CCOCC2)C1` (stereo not given), 0.01%; under `Cc1ccc(OCc2cc(C(=O)NCC(C)c3ccccc3)no2)cc1C` (stereo not given), 11.3%. For the molecule `O=C(COc1ccccc1Cl)Nc1ccc(N2CCCC2)cc1`, the inhibition was found to be 95.8%. For `CCN(Cc1ccccc1)S(=O)(=O)c1cc(C(=O)OC)n(C)c1` the value was -8.13%. Under `COc1ccc(OC)c(NC(=O)CSc2nnc(-c3ccco3)o2)c1` stands -0.57%. For `O=C(CCNC(=O)c1ccc(Br)cc1)NCC1COc2ccccc2O1` (stereo not given) the value was -3.43%. As for `CC1CCN(CCOc2ccc(OCc3ccccc3)cc2)CC1`, the inhibition is -10.4%.

As for `Cn1cc(CN2CCCC(C(=O)Nc3cccc(-c4cc5ccccc5[nH]4)c3)C2)cn1` (stereo not given), the inhibition is 12.1%. Take `CCOC(=O)N1CCN(Cc2nc3c(c(=O)[nH]c(=O)n3C)n2Cc2cc(C)ccc2C)CC1`: the inhibition was -5.27%. For `Cn1cccc1/C=N\NC(=O)C1COc2ccc(C(C)(C)C)cc2O1` (stereo not given) the value was 2.09%; for `N#Cc1sc2nc(-c3cccs3)cc(-c3ccc(Cl)cc3)c2c1N`, -2.75%; for `COc1ccc(-n2nc3c(c2NC(=O)CBr)CSC3)cc1`, -0.15%. Under `CSc1ccccc1OCc1cc(C(=O)N2CCN(c3ccccc3)CC2C)no1` (stereo not given) stands 19.9%; under `COc1ccc(OC)c(C(=O)c2ccc(C(=O)O)cc2)c1`, 3.69%.

In the case of `CCC1CCCCN1C(=O)CSc1nnc(-c2ccc(OC)cc2)o1` (stereo not given), the inhibition is -10.4%. For `COc1ccc(NC(=O)CSc2ccc3nnc(-c4cccnc4)n3n2)cc1OC` the value was -2.1%. Under `CN(Cc1c(O)ccc2c1oc(=O)c1ccccc12)C1CCCCC1` stands -4.31%; under `Cc1ccc(NC(=O)CN(C)C(=O)COC(=O)CCS(=O)(=O)c2ccc(C)cc2)cc1`, 10.4%; under `CCC1(CC)Cc2ccccc2C(N)=C1C#N`, 23.4%. For `CC(C)/C=C/CN1CCC(Oc2ccc(C(=O)N3CCCC3)cc2)CC1` the value was 2.41%; for `Cc1ccccc1CSc1nnc(C)c(=O)n1N`, 0.74%. For the molecule `Cc1nn(C)c(Cl)c1CN1CCCC(C(=O)Nc2ccc(-c3cscn3)cc2)C1` (stereo not given), the inhibition is 6.67%.

In the case of `CCOc1ccc(NC(=O)CN(C)C(=O)c2cccnc2Sc2ccc(C)c(C)c2)cc1OCC`, the inhibition is -0.64%. For `Cc1cccc(N(C)S(=O)(=O)c2cc3c(cc2C)n(C)c(=O)c(=O)n3C)c1` the value was -11.2%. For `CCc1cc2c(=O)nc3n(c2s1)Cc1ccccc1/C3=C(/O)c1ccc(F)cc1` the value was 33.5%; for `COc1ccc(CCN=C(N)NS(=O)(=O)c2ccc(F)cc2)cc1OC`, -2.35%; for `Cn1c(Cl)nc2c1c(=O)n(Cc1cccc(Br)c1)c(=O)n2C`, 3.13%. For `CCCc1nc2sc3c(c2c(=O)n1NC(=O)CCC(=O)O)CCCC3` the value was -0.6%; for `COc1cccc(-c2cc(C(=O)NCc3ccc(Cl)cc3)no2)c1`, 9.59%. `CC(C)(C)c1ccc(-n2ncc3c2CCCC3NC(=O)C2=NNC(=O)CC2)cc1` (stereo not given): the inhibition came to 8.03%. For `CCn1c(SCC(=O)Nc2cc(C)on2)nc2c1c(=O)n(C)c(=O)n2C` the value was -3.82%; for `Cc1cccc(C)c1OCc1cc(C(=O)N2CCN(C3CCCC3)CC2)no1`, 7.8%. For `COc1cccc(C2N(c3ccc(Cl)cc3)C(=O)C3CCCN32)c1` (stereo not given) the value was -11.3%; for `CCCCOc1ccc(C(=O)Nc2ccc(OCC(=O)N3CCOCC3)cc2)cc1`, 1.19%; for `O=[N+]([O-])c1nn(-c2ccc3c(c2)OCCO3)n(O)c1=NCc1ccc(F)cc1`, 65.3%. For `COc1c(Cl)ccc(Cl)c1C(=O)NC(=O)N1CCOCC1` the value was -6.73%; for `Cc1cc(NC(=O)c2cccc(S(=O)(=O)Nc3cccc(C(=O)O)c3)c2)no1`, -2.76%; for `COc1ccc(CCN2CC(C(=O)N3CCC(O)(c4ccccc4)CC3)CCC2=O)cc1` (stereo not given), -3.11%. As for `CC1CC(C)CN(CCCNC(=O)CN2C(=O)c3cccnc3Oc3ccccc32)C1` (stereo not given), the inhibition turned out to be 5.47%.

In the case of `O=C(c1cnn2c(C(F)F)cc(-c3ccccc3)nc12)N1CCOCC1`, the inhibition is -4.89%.

For `O=C(c1cccc(C(=O)N2CCN(c3ccc(F)cc3)CC2)c1)N1CCN(c2ccc(F)cc2)CC1`, the inhibition was determined as 19.3%. For `O=C(CSC1=NCCS1)Nc1nc2c(s1)CCCC2` the value was -8.84%; for `O=C(Nc1cccc(Cl)c1)c1nc[nH]c1C(=O)NCc1ccccc1`, 67.7%; for `CN(C)S(=O)(=O)c1cccc(NC(=O)c2ccncc2)c1`, -5.37%.

For `CCN1C[C@]2(CO)CC[C@H](OC)[C@@]34C2[C@H](OC)[C@@](O)(C13)[C@@]1(O)C[C@H](OC)[C@H]2C[C@@H]4[C@@H]1[C@H]2OC`, the inhibition came out at 4.39%.
